Results: PubChem BioAssay AID886 (National Center for Advancing Translational Sciences (NCATS), 2007)
Several values for one entry are separate records, joined by “and”; a condition that tells them apart may be missing. Identical values can stand only once. In all, about 73,000 compounds went through this assay and about 2,500 (3.4%) were called active. This list was built around the results that the source calls inconclusive (neither active nor inactive); the mix of calls is not that of the screen. Calls follow the shape of the dose curve; as a rule, active = well fitted inhibition curve with a large enough effect; inconclusive = small, poorly fitted or top-dose-only effect; inactive = no such curve, though single readings can be large or run the other way. Where the call is inconclusive, the potency comes from a doubtful curve fit.

biological target: 3-hydroxyacyl-CoA dehydrogenase type-2 (Homo sapiens) (UniProt Q99714); test: qHTS Assay for Inhibitors of HADH2 (Hydroxyacyl-Coenzyme A Dehydrogenase, Type II); details: recombinant HADH2, NADH fluorescence, beta-hydroxybutyryl-CoA; activity change, negative = inhibition: at 57.1 µM (top of the series); also: nearly all actives have a fitted effect of over 60% in size
UniProt Q99714, sequence (Q99714 whole entry, looked up): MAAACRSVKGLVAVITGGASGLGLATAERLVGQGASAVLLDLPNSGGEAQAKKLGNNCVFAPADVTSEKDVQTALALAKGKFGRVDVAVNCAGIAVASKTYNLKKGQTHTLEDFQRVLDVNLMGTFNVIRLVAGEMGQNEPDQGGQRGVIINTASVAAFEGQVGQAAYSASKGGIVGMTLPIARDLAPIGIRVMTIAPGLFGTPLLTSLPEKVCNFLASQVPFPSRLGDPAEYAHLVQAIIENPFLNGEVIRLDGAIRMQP
UniProt Q99714, sequence (Q99714 whole entry, looked up): as above
In short: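 E. coli-expressed His-tagged HADH2 tested at 20 nM in alkaline Tris buffer (pH 9.0); oxidation of 90 uM beta-hydroxybutyryl-CoA with 1 mM NAD+ tracked fluorimetrically for 4 min.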
% is scaled to controls: 0 for no effect and ±100 for the full control effect; potency is read from the fitted curve at half-maximal effect; tags tell the direction and shape of the fitted curve.

Row | SMILES | Potency | activity change, negative = inhibition
1 | CN=c1sc(C(=O)Nc2cccc(Cl)c2)cc(=O)n1C | inconclusive: 7.94 µM [inhibitor, single point] | –
2 | CCc1cccc(C)c1NC(=O)c1ccoc1C | inconclusive: 39.8 µM [inhibitor, single point] | –
3 | COCCCNc1oc(-c2ccccc2F)nc1C#N | active: 31.6 µM | –
4 | O=C(NC1CS(=O)(=O)CC1NCc1ccccc1)c1ccccc1 (stereo not given) | inconclusive: 39.8 µM [inhibitor, single point] | –
5 | CC(C)CO/N=C1/C[C@@H](O)[C@@H](O)[C@@H]2[C@@H]3C(=O)N(C4CCCCC4)C(=O)[C@H]3CC[C@H]12 | – | inactive: -3.97% [at 11.4 µM]
6 | COc1ccc(N2CC(C(=O)Nc3ccc4c(c3)OCO4)CC2=O)cc1 (stereo not given) | inactive | –
7 | O=C(O)CNCCc1ccccc1 | – | inactive: -1.95% [at 11.4 µM]
8 | CCNC(=O)c1ccc2c(c1)S(=O)(=O)c1ccccc1C2=O | inactive | –
9 | c1cn2cc(-c3ccc4c(c3)OCO4)nc2s1 | inconclusive: 25.1 µM [inhibitor, single point] | –
10 | COc1ccc(N(C)C(=O)CCC(=O)Nc2ccc3nc(N4CCOCC4)cc(C)c3c2)c(OC)c1 | active: 25.1 µM | –
11 | CC1(C)C(=O)C2(CCCCC2)C(=O)OC1c1ccc(O)cc1 (stereo not given) | inconclusive: 0.0794 µM [inhibitor, full curve, poor fit] | –
12 | Cc1cc(N2CCCC2)ccc1/C=N/n1cnnc1 | inconclusive: 3.16 µM [inhibitor, single point] | –
13 | COc1cc(-c2nn3c(-c4cccc(C)c4)nnc3s2)cc(OC)c1OC | inconclusive: 31.6 µM [inhibitor, single point] | –
14 | Oc1ccccc1-c1cc(-c2ccccc2Cl)[nH]n1 | inconclusive: 25.1 µM [inhibitor, single point] | –
15 | Nc1nsc2ccccc12 | inconclusive: 39.8 µM [inhibitor, single point] | –
16 | CCOc1cc(-c2nc(-c3ccccc3OC)no2)cc(OCC)c1OCC | inconclusive: 39.8 µM [inhibitor, single point] | –
17 | COc1cccc(C2C3=C(CCCC3=O)Nc3nc4ccccc4n32)c1OC (stereo not given) | active: 12.6 µM | –
18 | Clc1ccc2nc3ccccn3c2c1 | inconclusive: 31.6 µM [inhibitor, single point] | –
19 | COc1ccc(-c2nc(C#N)c(N3CCN(c4ccccc4)CC3)o2)cc1 | inconclusive: 3.98 µM [inhibitor, full curve] | –
20 | COc1ccc(OC)c(NC2c3ncccc3C(=O)N2Cc2ccco2)c1 (stereo not given) | inconclusive: 25.1 µM [inhibitor, partial curve] | –
21 | COc1ccc(-c2nc(NC(=O)c3cc(C(C)(C)C)nn3C)sc2C)cc1 | inconclusive: 39.8 µM [inhibitor, single point] | –
22 | CN(C(=O)c1cnc(N2CCN(c3ncccn3)CC2)c2ccccc12)c1ccc(Cl)cc1 | inconclusive: 39.8 µM [inhibitor, single point] | –
23 | CCOC(=O)c1c(NC(=O)c2nc3n(n2)C(C(F)F)CC(C)N3)sc2c1CCCC2 (stereo not given) | inconclusive: 39.8 µM [inhibitor, single point] | –
24 | CCOC(=O)N1CCN(C(=O)CS(=O)Cc2nc(-c3ccc(C)cc3)oc2C)CC1 (stereo not given) | inconclusive: 6.31 µM [inhibitor, single point] | –

Row | SMILES | Potency | activity change, negative = inhibition
25 | COc1cccc(NC(=O)c2nnn(Cc3ccc(Br)cc3F)c2N)c1 | inactive | –
26 | O=C(c1ccc(F)cc1)N(Cc1ccccc1)C1CCS(=O)(=O)C1 (stereo not given) | inconclusive: 6.31 µM [inhibitor, single point] | –
27 | N#CCSc1nc2ccc(N3CCCCC3)cc2c(=O)n1Cc1ccccc1 | active: 15.8 µM | –
28 | c1ccc(-c2ccc(-c3ccccn3)nn2)nc1 | inconclusive: 39.8 µM [inhibitor, single point] | –
29 | CCOc1ccc(N2CC(C(=O)Nc3cccc(C)c3C)CC2=O)cc1 (stereo not given) | inactive | –
30 | Cc1ccc(S(=O)(=O)N2CCCC(C(=O)NCCc3ccc4c(c3)OCO4)C2)cc1 (stereo not given) | inactive | –
31 | S=C(S)O[C@@H]1C[C@@H]2C[C@H]1[C@@H]1CCC[C@H]21 | inconclusive: 12.6 µM [inhibitor, partial curve] | –
32 | CCOc1ccccc1C(=O)N1CCC(n2nnc3cc(C)ccc32)CC1 | inactive | –
33 | O=[N+]([O-])c1ccc2c(N=Nc3ccc4ccccc4c3O)c(O)cc(S(=O)(=O)O)c2c1 | active: 2.51 µM | –
34 | Cn1c(NC(=O)c2ccco2)c(-c2ccccc2)c(=O)c2ccccc21 | inconclusive: 25.1 µM [inhibitor, partial curve] | –
35 | CC(NC(=O)Nc1ccc(F)cc1F)c1ccncc1 (stereo not given) | inconclusive: 3.98 µM [inhibitor, single point] | –
36 | COC(=O)Cc1nnc(NC(=O)c2ccccc2)s1 | inactive | –
37 | N#Cc1ccsc1NC(=O)COC(=O)CCCSc1nc2ccccc2s1 | inconclusive: 39.8 µM [inhibitor, single point] | –
38 | COC(=O)c1cnn2c3c(c(C)nc12)CCCC3 | inconclusive: 39.8 µM [inhibitor, single point] | –
39 | COc1ccc2c(c1)CCc1c(-c3noc4c3CCc3cc(OC)ccc3-4)noc1-2 | – | inactive: 4.5% [at 11.4 µM]
40 | Cc1cccc(CNc2ncncc2-c2ccc3c(c2)OCO3)c1 | inconclusive: 39.8 µM [inhibitor, single point] | –
41 | CS(=O)(=O)CCNCc1nc(-c2ccc3ncnc(Nc4ccc(OCc5cccc(F)c5)c(Cl)c4)c3c2)cs1 | inconclusive: 6.31 µM [inhibitor, single point] | –
42 | Cn1c(=O)[nH]c(=O)c2c1nc(Br)n2CCCSc1nc2ccccc2o1 | inconclusive: 39.8 µM [inhibitor, single point] | –
43 | Cc1ccc(NC(=O)C2CCN(S(=O)(=O)c3cccc4nonc34)CC2)nc1 | inactive | –
44 | CCOC(=O)N1CCN(C(=O)CSCC(=O)Nc2nc(-c3ccc(OC)cc3)cs2)CC1 | inactive | –
45 | COc1ccc(CCN(CC(=O)NC2CCCC2)C(=O)CCC(=O)Nc2cc(C)on2)cc1OC | inconclusive: 6.31 µM [inhibitor, single point] | –
46 | Cc1cc(C)c(S(=O)(=O)N(CC(=O)N2CCOCC2)C2CCCCC2)c(C)c1 | inconclusive: 3.98 µM [inhibitor, single point] | –
47 | O=C(Nc1cccc(C(F)(F)F)c1)c1cc(S(=O)(=O)N2CCCCC2)ccc1N1CCOCC1 | inconclusive: 39.8 µM [inhibitor, single point] | –
48 | CC1Cn2c(nnc2-c2ccccc2O)S1 (stereo not given) | inconclusive: 3.98 µM [inhibitor, full curve, poor fit] | –

Row | SMILES | Potency | activity change, negative = inhibition
49 | CCOC(=O)CCc1c(C)c2ccc(OCC(=O)N(CC)CC)c(C)c2oc1=O | active: 20 µM | –
50 | Cc1c(-c2ccco2)[n+](=O)c2c(n1[O-])CCCCC2 | inactive | –
51 | Cc1ccc2cc3cc(C(=O)NCCC(C)C)oc3nc2c1 | inconclusive: 25.1 µM [inhibitor, single point] | –
52 | Cc1nn2c(N)csc2nc1=O | inconclusive: 15.8 µM [inhibitor, partial curve] | –
53 | Nc1c(C(=O)NCC2CCCO2)sc(=S)n1-c1ccccc1 (stereo not given) | inconclusive: 20 µM [inhibitor, partial curve] | –
54 | COc1cc(NC(=O)c2ccco2)c(OC)cc1NC(=O)Nc1cccc(Cl)c1 | inactive | –
55 | CCCn1c(-c2ccc(F)cc2)nc2c(NCCCCN3CCCC3)nc(C)nc21 | inconclusive: 39.8 µM [inhibitor, single point] | –
56 | N#Cc1c2c(nc(N)c1-c1ccccc1)CCCCC2 | inconclusive: 3.98 µM [inhibitor, full curve] | –
57 | c1ccc2c(c1)Cn1nc(Cc3nc4c(s3)CCCC4)nc1-2 | inconclusive: 1.58 µM [inhibitor, full curve] | –
58 | CCOC(=O)c1ccc(NC(=O)CSc2nc3c(c(=O)n2CC)SC(C)C3)cc1 (stereo not given) | inconclusive: 39.8 µM [inhibitor, single point] | –
59 | COC(=O)[C@@]1(Cc2ccc(OC)cc2)[C@H]2c3cc(C(=O)N4CCCC4)n(Cc4nc5ccccc5[nH]4)c3C[C@H]2CN1C(=O)c1ccccc1 | inconclusive: 39.8 µM [inhibitor, single point] | –
60 | COc1ccc(N2CCN(C(=O)CSc3nnc(-c4cccnc4)n3-c3ccccc3)CC2)cc1 | inconclusive: 0.158 µM [inhibitor, full curve, poor fit] | –
61 | CN(C)c1cccc(C(=O)NCC2CCCO2)c1 (stereo not given) | inconclusive: 20 µM [inhibitor, single point] | –
62 | O=C(Nc1nc2nc(-c3ccccc3)cc(-c3ccccc3)n2n1)c1ccco1 | inconclusive: 39.8 µM [inhibitor, single point] | –
63 | Cc1ccc(CCNC(=O)c2coc3nc4ccccc4nc23)cc1 | inconclusive: 31.6 µM [inhibitor, single point] | –
64 | COc1c(F)c(F)c(-c2csc(N)n2)c(F)c1F | inconclusive: 31.6 µM [inhibitor, single point] | –
65 | CCCC(=O)Nc1c(O)c2ccccc2[nH]c1=O | inconclusive: 20 µM [inhibitor, partial curve] | –
66 | CCOC(=O)N(Cc1ccccc1)C(C(=O)O)C(C(=O)O)N(Cc1ccccc1)C(=O)OCC (stereo not given) | inconclusive: 3.16 µM [inhibitor, single point] | –
67 | O=C(O)C1C2C=CC(O2)C1C(=O)NCCC1=CCCCC1 (stereo not given) | inactive | –
68 | O=C(Nc1ccc2c(c1)C(=O)N(C1CCCCC1)C2=O)C1CCCO1 (stereo not given) | active: 25.1 µM | –
69 | Cc1cc(C)c(C#N)c(N2CCCC2)n1 | active: 25.1 µM | –
70 | N[C@@H](CO)C(=O)NNCc1ccc(O)c(O)c1O | active: 1.26 µM and active: 794 nM | –
